Biological target: T1, C3b (UniProt P01024 23-667; P01024 fragment)
T1 construct: Amine-coupled to a CM5 Biacore chip in the SPR assays; in solution in the cofactor assay; also called complement C3b
Assay: SPR (Biacore), C3b on a CM5 chip
From the text: FIG. 3F—Surface plasmon resonance was used to monitor formation of the C3bBb (convertase) complex as factor D and factor B were flowed together over C3b that was amine-coupled to a CM5 (Biacore) sensor chip. The subsequent decline in response reflects decay of the complex as Bb is released from the chip surface. The rate of decay is accelerated by initiating (in this case 210 s into the natural decay process) a flow of reference FH or rFH. […] The control proteins, BSA and FH modules 19-20, have no effect on decay.

Chain of C3b (P01024 23-667 limits assumed, chain 1 of 2): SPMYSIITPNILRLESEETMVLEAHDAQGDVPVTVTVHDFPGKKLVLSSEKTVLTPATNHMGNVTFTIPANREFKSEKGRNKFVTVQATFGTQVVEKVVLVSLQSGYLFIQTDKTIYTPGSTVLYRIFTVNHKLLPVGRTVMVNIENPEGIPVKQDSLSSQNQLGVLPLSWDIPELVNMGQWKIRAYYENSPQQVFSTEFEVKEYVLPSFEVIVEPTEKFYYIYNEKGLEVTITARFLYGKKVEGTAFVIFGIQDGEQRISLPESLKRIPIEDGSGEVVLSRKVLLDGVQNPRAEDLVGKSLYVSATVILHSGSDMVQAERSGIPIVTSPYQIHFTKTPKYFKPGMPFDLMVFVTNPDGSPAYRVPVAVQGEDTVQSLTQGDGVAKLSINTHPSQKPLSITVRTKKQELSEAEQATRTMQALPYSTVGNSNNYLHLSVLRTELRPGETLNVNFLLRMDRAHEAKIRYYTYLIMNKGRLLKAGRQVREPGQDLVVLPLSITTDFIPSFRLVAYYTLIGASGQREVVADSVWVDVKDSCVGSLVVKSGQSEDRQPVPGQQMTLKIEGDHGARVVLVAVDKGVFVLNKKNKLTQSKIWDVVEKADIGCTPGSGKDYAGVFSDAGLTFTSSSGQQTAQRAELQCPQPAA
Chain of C3b (P01024 749-1663 limits assumed, chain 2 of 2): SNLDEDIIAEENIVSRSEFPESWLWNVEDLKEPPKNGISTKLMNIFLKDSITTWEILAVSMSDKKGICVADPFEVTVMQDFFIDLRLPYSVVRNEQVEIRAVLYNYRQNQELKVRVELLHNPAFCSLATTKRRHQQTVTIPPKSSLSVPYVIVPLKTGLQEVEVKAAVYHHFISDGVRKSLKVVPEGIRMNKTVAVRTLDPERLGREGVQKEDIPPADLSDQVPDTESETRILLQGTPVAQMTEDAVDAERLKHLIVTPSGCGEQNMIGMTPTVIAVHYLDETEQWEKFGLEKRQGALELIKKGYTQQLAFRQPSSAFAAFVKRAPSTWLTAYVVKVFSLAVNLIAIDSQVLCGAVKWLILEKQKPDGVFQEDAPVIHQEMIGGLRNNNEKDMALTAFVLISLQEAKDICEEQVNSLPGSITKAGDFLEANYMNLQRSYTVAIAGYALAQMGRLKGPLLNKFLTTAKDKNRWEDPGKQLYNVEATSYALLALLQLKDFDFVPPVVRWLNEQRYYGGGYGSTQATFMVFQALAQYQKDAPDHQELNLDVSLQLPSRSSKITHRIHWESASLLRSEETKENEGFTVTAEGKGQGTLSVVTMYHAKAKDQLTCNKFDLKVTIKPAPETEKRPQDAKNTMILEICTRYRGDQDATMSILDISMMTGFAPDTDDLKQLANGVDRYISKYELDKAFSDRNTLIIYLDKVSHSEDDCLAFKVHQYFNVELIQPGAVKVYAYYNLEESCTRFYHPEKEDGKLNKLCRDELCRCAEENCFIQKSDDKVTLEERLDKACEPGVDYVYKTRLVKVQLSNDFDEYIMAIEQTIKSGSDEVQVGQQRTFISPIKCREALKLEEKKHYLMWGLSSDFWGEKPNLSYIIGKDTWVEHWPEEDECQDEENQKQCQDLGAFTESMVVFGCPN

binding result: binds
B1: factor B (enzyme, UniProt P00751 26-764, looked up)
chain: TPWSLARPQGSCSLEGVEIKGGSFRLLQEGQALEYVCPSGFYPYPVQTRTCRSTGSWSTLKTQDQKTVRKAECRAIHCPRPHDFENGEYWPRSPYYNVSDEISFHCYDGYTLRGSANRTCQVNGRWSGQTAICDNGAGYCSNPGIPIGTRKVGSQYRLEDSVTYHCSRGLTLRGSQRRTCQEGGSWSGTEPSCQDSFMYDTPQEVAEAFLSSLTETIEGVDAEDGHGPGEQQKRKIVLDPSGSMNIYLVLDGSDSIGASNFTGAKKCLVNLIEKVASYGVKPRYGLVTYATYPKIWVKVSEADSSNADWVTKQLNEINYEDHKLKSGTNTKKALQAVYSMMSWPDDVPPEGWNRTRHVIILMTDGLHNMGGDPITVIDEIRDLLYIGKDRKNPREDYLDVYVFGVGPLVNQVNINALASKKDNEQHVFKVKDMENLEDVFYQMIDESQSLSLCGMVWEHRKGTDYHKQPWQAKISVIRPSKGHESCMGAVVSEYFVLTAAHCFTVDDKEHSIKVSVGGEKRDLEIEVVLFHPNYNINGKKEAGIPEFYDYDVALIKLKNKLKYGQTIRPICLPCTEGTTRALRLPPTTTCQQQKEELLPAQDIKALFVSEEEKKLTRKEVYIKNGDKKGSCERDAQYAPGYDKVKDISEVVTPRFLCTGGVSPYADPNTCRGDSGGPLIVHKRSRFIQVGVISWGVVDVCKNQKRQKQVPAHARDFHINLFQVLPWLKEKLQDEDLGFL
notes: also called Bb (after cleavage by factor D)
